# The campaign covered roughly 350,000 compounds. About 9,900 (2.8%) were called active. The shares of active, inactive and inconclusive entries below differ from those in the screen. Calls come from the whole dose curve; as a rule, active = well fitted activation curve with a large enough effect; inconclusive = small, poorly fitted or top-dose-only effect; inactive = no such curve, though single readings can be large or run the other way. Potencies of inconclusive entries are left out as doubtful fits.
# Assay: A quantitative high throughput screen for small molecules that induce DNA re-replication in MCF 10a normal breast cells. For activity, positive = re-replication: % of control where 0% means no effect. Note: nearly all actives have a fitted effect of over 50% in size.
# Conditions: MCF 10A DNA re-replication, Hoechst nuclear intensity, 48 h; activity, positive = re-replication: at 46.1 µM (top of the series)
# Potency is the fitted concentration of half-maximal effect; tags give direction and shape of the fitted curve.
SMILES,Potency,"activity, positive = re-replication"
CCOc1cc(NC(=O)c2ccccc2C)c(OCC)cc1NC(=O)C1=Cc2ccccc2OC1,"inconclusive [activator, full curve, poor fit]",–
COc1cc2c(cc1OC)C(COc1ccccc1OC)N(C(=O)C(C)C)CC2 (centres undefined),–,inactive: -4.13%
CNC(=O)c1cc(NC(=O)N(CCC#N)CCN(C(=O)NC(Cc2ccccc2)C(=O)NC(CC(C)C)C(=O)NC)c2ccccc2)ccc1OC (centres undefined),"inconclusive [activator, full curve, poor fit]",–
CC(=O)Nc1ccc(NC(=O)C(C)OC(=O)/C=C/c2cn(-c3ccccc3)nc2-c2cccnc2)cc1 (centres undefined),"inconclusive [activator, partial curve]",–
CC(=O)Nc1ccc(-c2nnn(CC(=O)Nc3ccc4c(c3)OCO4)n2)cc1Cl,–,inactive: -7.18%
CSc1cccc(CN2CCN(CCc3ccccc3)C(CCO)C2)c1 (centres undefined),"inconclusive [activator, partial curve]",–
Cc1ccc(C2=NN(C(=O)CCC(=O)O)C(c3cccs3)C2)cc1 (centres undefined),–,inactive: 0.819%
CCN=C1S/C(=C\c2cn(C(C)=O)nc2-c2ccccc2)C(=O)N1CC,"inconclusive [activator, partial curve, poor fit]",–
O=S(=O)(NCc1ccccc1)c1ccc(Cl)cc1,–,inactive: 5.44%
CCCCNC(=O)c1onc(CCl)c1C(=O)OC,"inconclusive [activator, single point]",–
CC1(C)CC(=O)C2=C(C1)OC(N)=C(C#N)C2c1ccccc1[N+](=O)[O-] (centres undefined),–,inactive: -4.61%
COc1ccc(N2C(=O)CSC2c2ccc([N+](=O)[O-])cc2)cc1 (centres undefined),"inconclusive [activator, partial curve, poor fit]",–
O=S(=O)(Nc1cccc(-c2ccc(N3CCCCCC3)nn2)c1)c1ccc(F)cc1,active: 14.6 µM,–
CCOC(=O)c1cnc(SC)nc1Oc1cccc(NS(=O)(=O)c2ccc(C)cc2)c1,"inconclusive [activator, partial curve, poor fit]",–
CCN(CC)C(=O)Cn1cc(C(=O)C(=O)Nc2ccc3c(c2)OCCO3)c2ccccc21,"inconclusive [activator, single point]",–
O=c1c(O[C@@H]2O[C@H](CO)C(O)C2O)c(-c2ccc(O)c(O)c2)oc2cc(O)cc(O)c12 (some centres undefined),"inconclusive [activator, full curve, poor fit]",–
c1ccc2c(Nc3nc4c(s3)CCCC4)cccc2c1,"inconclusive [activator, full curve, poor fit]",–
O=[N+]([O-])/C=C/c1cc2ccccc2[nH]1,"inconclusive [activator, single point]",–
O=C/C(=C\Nc1ccc(Cl)cn1)c1nc2ccccc2o1,"inconclusive [activator, single point]",–
O=C(CCCc1c[nH]c2ccccc12)N1CCN(S(=O)(=O)c2cccs2)CC1,"inconclusive [activator, partial curve, poor fit]",–
COC(=O)Cn1c2ccc(OC)cc2c2nc(C)sc21,"inconclusive [activator, single point]",–
CC(C)c1ccc(NC(=O)COC(=O)C2CCCCC2)cc1,–,inactive: 6.96%

SMILES,Potency,"activity, positive = re-replication"
C=C(C)C1CC=C(C)/C(=N/NC(=O)c2ccc(NC(=O)CC)cc2)C1 (centres undefined),–,inactive: -0.606%
CCOc1ccc(NC(=O)CC2C(=O)Nc3ccccc3N2C(=O)c2ccccc2)cc1 (centres undefined),"inconclusive [activator, partial curve, poor fit]",–
c1ccc(CN(Cc2ccccc2)c2nn[nH]n2)cc1,"inconclusive [activator, single point]",–
CCCc1cc(C(=O)N(C)CC(=O)Nc2ccc(OCC)c(OCC)c2)sc1C,active: 0.461 µM,–
Cc1cc(Nc2ccccc2C(=O)O)n(-c2cccc(Cl)c2)n1,–,inactive: -0.762%
O=C(Nc1cccnc1)c1ccc(COc2cc(Cl)ccc2Cl)o1,"inconclusive [activator, single point]",–
CC1CN(c2ccc([N+](=O)[O-])c(NCCOc3ccc(Cl)cc3)c2)CC(C)N1 (centres undefined),–,inactive: 10.5%
COc1cc(OC)nc(-n2ncc(Br)c(Br)c2=O)n1,active: 4.61 µM,–
COc1ccccc1Nc1nc(-c2cccc([N+](=O)[O-])c2)cs1,"inconclusive [activator, partial curve, poor fit]",–
Clc1ccc2c(c1)c1cc(Cl)ccc1n2CN1CCOCC1,"inconclusive [activator, single point]",–
Cc1ccc(-c2nnn(CC(=O)N(c3ccc4c(c3)OCCO4)C(C(=O)NCC3CCCO3)c3ccc(F)cc3)n2)o1 (centres undefined),"inconclusive [activator, partial curve, poor fit]",–
CCOC(=O)c1c(NC(=O)c2ccc(Cl)s2)sc(C)c1C,"inconclusive [activator, single point]",–
Clc1nc2ccccc2cc1-c1nnn(-c2ccccc2)n1,"inconclusive [activator, single point]",–
COc1cc(C)c(S(=O)(=O)N2CCOCC2)c(C)c1C,"inconclusive [activator, single point]",–
CCOC(=O)CN1C(=O)C(Sc2n[nH]c(-c3cccc(C)c3)n2)CCc2ccccc21 (centres undefined),–,inactive: -3.27%
Cc1ccc(C(=O)N2CCC(Cc3ccccc3)CC2)cc1S(=O)(=O)N1CCOCC1,"inconclusive [activator, partial curve, poor fit]",–
Cc1cc(O)c2c(c1)OC1(C)CCC3C(C)(C)CCCC34COC2C14 (centres undefined),"inconclusive [activator, full curve]",–
CC(=O)NC(=S)Nc1ccc(S(=O)(=O)N(C)Cc2ccccc2)cc1,"inconclusive [activator, single point]",–
Cc1cc(N2C(=O)C(O)=C(C(=O)c3ccco3)C2c2cccc(Oc3ccccc3)c2)no1 (centres undefined),"inconclusive [activator, single point]",–
COC(=O)c1cc(NC(=O)C2COc3ccccc3O2)cc(C(=O)OC)c1 (centres undefined),"inconclusive [activator, partial curve, poor fit]",–
CC(c1ccon1)N(C)Cc1cn(C)nc1-c1cccc(Cl)c1 (centres undefined),"inconclusive [activator, single point]",–
Cc1cc(C(F)(F)F)nn1CC(=O)Nc1cccnc1,"inconclusive [activator, single point]",–

SMILES,Potency,"activity, positive = re-replication"
CN1CCN(C(=O)c2ccc3c(c2)N(Cc2cccc(Cl)c2)C(=O)c2ccccc2S3(=O)=O)CC1,"inconclusive [activator, full curve, poor fit]",–
Cn1cccc1CC(=O)N/N=C\c1c2ccccc2cc2ccccc12,"inconclusive [activator, single point]",–
O=C(NCc1nnc(SCC(=O)N2CCCCC2)o1)c1c(F)cccc1Cl,–,inactive: 0.544%
CCc1ccc(/C=C/C(=O)C2C(=O)c3ccccc3C2=O)cc1,"inconclusive [activator, single point]",–
C/C(=N\Nc1ccc(S(=O)(=O)N2CCCCC2)cn1)c1ccc(O)cc1,"inconclusive [activator, partial curve, poor fit]",–
COc1ccc(CCNC(=O)CSc2ccsc2[N+](=O)[O-])c(OC)c1,"inconclusive [activator, single point]",–
O=C(CC(CC(=O)c1ccc(Br)cc1)c1cccnc1)c1ccc(Br)cc1,"inconclusive [activator, partial curve, poor fit]",–
CCCCn1c(SCC(=O)NCc2ccco2)nc2ccc(N3CCOCC3)cc2c1=O,"inconclusive [activator, partial curve, poor fit]",–
CCCn1c(COc2ccccc2OC)nc2ccccc21,–,inactive: -8.25%
O=C(NNC(=O)c1cc2cc(Br)ccc2oc1=O)c1ccc(O)cc1O,"inconclusive [activator, single point]",–
O=C(C1=C[C@H](C2CCCCC2)C[C@H](OCc2ccc(CO)cc2)O1)N1CCN(Cc2ccccc2)CC1,–,inactive: 34.6%
COc1ccc(CCNC(=O)C2CCCN2C(=O)Nc2ccc(C)cc2)cc1OC (centres undefined),"inconclusive [activator, partial curve, poor fit]",–
O=C(Nc1ccccc1Cl)c1ccccc1Oc1ccc(C(F)(F)F)cc1[N+](=O)[O-],"inconclusive [activator, single point]",–
Cc1ccc(NC(=O)Cn2cnc3c(OCc4ccccc4)ncnc32)cc1C,"inconclusive [activator, full curve, poor fit]",–
COc1ccc(-c2c(C)nn3c(N4CCC5(CC4)OCCO5)cc(C)nc23)cc1OC,"inconclusive [activator, partial curve, poor fit]",–
O=C(NC(N1CCOCC1)C(Cl)(Cl)Cl)c1cc([N+](=O)[O-])cc([N+](=O)[O-])c1 (centres undefined),"inconclusive [activator, single point]",–
Cc1nc(NC(=O)c2ccc(F)cc2)sc1C(=O)Nc1ccc2c(c1)CCC2,–,inactive: -7.89%
CN1CCN(CC(=O)N/N=C\c2c[nH]c3ccccc23)CC1,–,inactive: 28.1%
O=C(NCCC1=CCCCC1)c1ccc(Cl)c(S(=O)(=O)N2CCCCC2)c1,"inconclusive [activator, single point]",–
CN=C1SC(CC(=O)Nc2ccc(F)cc2F)C(=O)N1/N=C/c1ccc(OC(F)F)c(OC)c1 (centres undefined),active: 4.61 µM,–
